PubChem BioAssay AID504333 (National Center for Advancing Translational Sciences (NCATS), 2011)
The campaign covered roughly 360,000 compounds. About 16,000 (4.4%) were called active. The inconclusive results got no clear call from the source; some entries with a clear call stand among them for comparison. Calls come from the whole dose curve; as a rule, active = well fitted inhibition curve with a large enough effect; inconclusive = small, poorly fitted or top-dose-only effect; inactive = no such curve, though single readings can be large or run the other way. Potencies beside an inconclusive call are fits to weak or partial responses and may not hold up.

Each molecule was assayed against Bromodomain adjacent to zinc finger domain protein 2B (Homo sapiens) (UniProt Q9UIF8) (assay: qHTS Assay for Inhibitors of BAZ2B). Settings: AlphaScreen BAZ2B-H3K14Ac peptide displacement; activity change, negative = inhibition: at 114 µM (top of the series).
Chain of UniProt Q9UIF8 (Q9UIF8 whole entry, looked up, the tested form may be a part): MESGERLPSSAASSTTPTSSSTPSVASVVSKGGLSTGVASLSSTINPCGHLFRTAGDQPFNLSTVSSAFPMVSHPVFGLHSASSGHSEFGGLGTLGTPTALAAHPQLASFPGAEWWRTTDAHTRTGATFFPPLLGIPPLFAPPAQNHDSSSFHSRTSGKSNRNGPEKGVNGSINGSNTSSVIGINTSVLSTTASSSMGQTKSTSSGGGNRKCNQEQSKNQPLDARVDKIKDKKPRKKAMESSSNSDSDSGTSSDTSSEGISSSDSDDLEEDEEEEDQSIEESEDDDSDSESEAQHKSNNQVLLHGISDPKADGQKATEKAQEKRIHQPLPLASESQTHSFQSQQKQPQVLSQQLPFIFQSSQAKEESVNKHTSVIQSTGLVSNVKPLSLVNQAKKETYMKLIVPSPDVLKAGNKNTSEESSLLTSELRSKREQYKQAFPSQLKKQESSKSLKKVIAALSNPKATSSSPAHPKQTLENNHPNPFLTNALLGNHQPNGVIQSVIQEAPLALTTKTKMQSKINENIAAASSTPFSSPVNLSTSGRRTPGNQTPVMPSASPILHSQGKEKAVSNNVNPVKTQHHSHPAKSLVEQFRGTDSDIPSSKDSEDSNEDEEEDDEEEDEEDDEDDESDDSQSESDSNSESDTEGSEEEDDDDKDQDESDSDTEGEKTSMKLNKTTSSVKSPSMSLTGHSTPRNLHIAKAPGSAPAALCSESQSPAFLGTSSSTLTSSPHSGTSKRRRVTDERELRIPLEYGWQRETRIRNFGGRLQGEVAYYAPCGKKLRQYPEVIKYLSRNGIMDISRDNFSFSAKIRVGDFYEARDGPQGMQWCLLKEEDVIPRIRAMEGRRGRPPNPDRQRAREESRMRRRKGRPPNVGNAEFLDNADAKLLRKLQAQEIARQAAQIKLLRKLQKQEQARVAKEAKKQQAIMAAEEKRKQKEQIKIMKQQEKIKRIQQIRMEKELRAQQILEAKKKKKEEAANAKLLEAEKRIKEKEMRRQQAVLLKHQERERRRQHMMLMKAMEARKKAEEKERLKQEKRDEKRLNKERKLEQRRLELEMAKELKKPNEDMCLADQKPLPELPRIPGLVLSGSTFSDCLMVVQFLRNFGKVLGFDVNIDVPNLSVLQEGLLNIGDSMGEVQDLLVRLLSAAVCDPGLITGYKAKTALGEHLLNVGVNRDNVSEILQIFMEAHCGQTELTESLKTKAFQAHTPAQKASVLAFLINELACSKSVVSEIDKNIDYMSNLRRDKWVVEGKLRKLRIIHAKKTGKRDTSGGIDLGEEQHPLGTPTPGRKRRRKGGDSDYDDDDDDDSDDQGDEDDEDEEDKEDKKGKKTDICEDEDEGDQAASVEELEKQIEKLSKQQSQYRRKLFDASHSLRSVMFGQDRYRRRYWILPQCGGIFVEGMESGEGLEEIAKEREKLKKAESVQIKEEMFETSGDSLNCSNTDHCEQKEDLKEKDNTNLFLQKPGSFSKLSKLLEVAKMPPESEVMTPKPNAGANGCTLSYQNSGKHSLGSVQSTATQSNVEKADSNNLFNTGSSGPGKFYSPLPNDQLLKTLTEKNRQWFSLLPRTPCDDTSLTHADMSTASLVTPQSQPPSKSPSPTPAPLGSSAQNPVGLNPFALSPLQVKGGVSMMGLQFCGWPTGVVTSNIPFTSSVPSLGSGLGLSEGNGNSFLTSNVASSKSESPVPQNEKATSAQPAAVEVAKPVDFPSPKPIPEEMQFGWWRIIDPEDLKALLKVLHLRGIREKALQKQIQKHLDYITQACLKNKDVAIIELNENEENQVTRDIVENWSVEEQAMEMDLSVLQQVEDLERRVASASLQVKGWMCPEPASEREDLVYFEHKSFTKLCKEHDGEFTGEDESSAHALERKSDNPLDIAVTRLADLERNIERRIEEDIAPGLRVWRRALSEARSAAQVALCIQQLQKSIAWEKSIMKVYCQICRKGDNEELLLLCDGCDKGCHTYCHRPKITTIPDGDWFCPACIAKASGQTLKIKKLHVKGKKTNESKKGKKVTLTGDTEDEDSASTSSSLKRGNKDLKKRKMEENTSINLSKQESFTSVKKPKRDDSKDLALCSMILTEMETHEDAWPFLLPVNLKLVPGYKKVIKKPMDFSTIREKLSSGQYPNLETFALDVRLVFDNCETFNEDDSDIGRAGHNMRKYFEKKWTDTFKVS
Method in brief: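 In this displacement format the biotinylated H3(5-23) peptide acetylated at Lys14 serves as ligand at 50 nM, with BAZ2B at 50 nM in PBS pH 7.4 containing 0.01% Tween-20. Donor and acceptor beads are 10 ug/mL final.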
% is set by controls: 0 for no effect and ±100 for the full control effect; potency is the fitted concentration of half-maximal effect; tags give direction and shape of the fitted curve.
Note: nearly all actives have a fitted effect of over 60% in size.

SMILES | activity change, negative = inhibition | Potency
CC(C)(C)c1ccc(C(=O)Nc2cc(-c3ccccc3)nn2-c2ccccc2)cc1 | inactive: 5.28% | 
COc1ccc(N2CCN(C(=O)c3ccccc3NS(=O)(=O)c3ccccc3)CC2)cc1 |  | inconclusive: 39.8 µM [inhibitor, partial curve]
Nc1n[nH]c(N)c1N=Nc1cccc(C(F)(F)F)c1 |  | active: 39.8 µM
Cc1ccccc1-n1ncc(C(C)NC(=O)c2ccccc2)c1C (stereo not given) | inactive: 3.7% | 
CCOc1ccc(C(=O)Nc2cc3c(cc2N2CCCC2)n(CC)c(=O)n3CC)cc1OCC |  | inconclusive: 28.2 µM [inhibitor, single point]
S=C(NCc1ccco1)Nc1ccccn1 |  | inconclusive: 50.1 µM [inhibitor, partial curve]
Cc1ccc(C)c(N2CCN(C(=O)c3ccc(CS(=O)Cc4ccc(Cl)cc4)o3)CC2)c1 (stereo not given) |  | inconclusive: 25.1 µM [inhibitor, full curve]
COc1ccc(N2CCN(C(=O)c3ccc(NC(=O)c4nsc5ccccc45)cc3)CC2)cc1 |  | inconclusive: 12.6 µM [inhibitor, full curve, poor fit]
CCOC(=O)N1CCN(C(=O)C(=O)NN)CC1 | inactive: -11.6% | 
Cc1nccn1-c1c2c(c(C#N)c3nc4ccccc4n13)CCC2 |  | inconclusive: 100 µM [inhibitor, single point]
CCN1c2ccccc2-n2cccc2C12CCN(C(=O)Nc1ccccc1Br)CC2 |  | inconclusive: 79.4 µM [inhibitor, single point]
Cc1cc(N2CCN(c3ccccc3)CC2)nc(-n2nc(C)cc2C)n1 |  | inconclusive: 11.2 µM [inhibitor, full curve]
COc1ccc(NC(=S)N/C(=N/S(=O)(=O)c2ccc(C)cc2)c2ccccc2)cc1 | inactive: -17.2% | 
COc1ccc(NS(=O)(=O)c2ccc(N/N=C/c3ccc(N4CCOCC4)cc3)c([N+](=O)[O-])c2)cc1 |  | inconclusive: 79.4 µM [inhibitor, single point]
CC1C/C(=C/c2ccccn2)C(=O)/C(=C/c2ccccn2)C1 (stereo not given) |  | inconclusive: 50.1 µM [inhibitor, partial curve]
CC(=O)Nc1ccc(S(=O)(=O)Nc2nnc(C(C)C)s2)cc1 |  | inconclusive: 89.1 µM [inhibitor, single point]
COc1ccc(-c2[nH]ncc2CN2CCN(c3ccc(F)cc3)CC2)cc1 |  | inconclusive: 50.1 µM [inhibitor, partial curve]
COc1cc(C(c2nnnn2C(C)(C)C)N2CCN(c3nc4ccccc4s3)CC2)ccc1O (stereo not given) |  | inconclusive: 89.1 µM [inhibitor, single point]
O=C(NCc1ccccn1)c1ccc2c(c1)N(Cc1ccccc1)CCS2 |  | inconclusive: 39.8 µM [inhibitor, partial curve]
Cc1[nH]c2ccccc2c1N=Nc1ccc(F)cc1 |  | active: 31.6 µM
O=C1C(NS(=O)(=O)c2cccs2)=C(N2CCN(c3cccc(C(F)(F)F)c3)CC2)C(=O)c2ccccc21 |  | active: 10 µM
Cc1[nH]c2ccccc2c1SCC(=O)NNC(=O)Nc1ccc(OC(F)(F)F)cc1 |  | inconclusive: 70.8 µM [inhibitor, single point]
O=C(O)c1cccc(-n2cccc2/C=C2\NC(=O)N(Cc3ccc(F)cc3)C2=O)c1 |  | active: 50.1 µM

SMILES | activity change, negative = inhibition | Potency
CC1CCCCN1S(=O)(=O)c1ccc(C(=O)Nc2nnc(C3=COCCO3)o2)cc1 (stereo not given) |  | active: 89.1 µM
O=C(COC(=O)c1cc([N+](=O)[O-])ccc1NCCO)c1ccccc1 |  | inconclusive: 89.1 µM [inhibitor, single point]
COc1cc2c(=O)n(Cc3ccco3)c(=O)n(CC(=O)Nc3ccc(F)cc3)c2cc1OC | inactive: -9.44% | 
CC(=O)c1ccc(NC(=O)c2cccs2)cc1 |  | inconclusive: 12.6 µM [inhibitor, partial curve, poor fit]
COc1ccc(C(=O)O)cc1NC(=S)NC(=O)/C=C/c1ccc(C(C)C)cc1 |  | active: 50.1 µM
C=CCSc1nc(C)c(CC(=C)C)c(=O)[nH]1 | inactive: 6.48% | 
Cc1ccc2c(c1)C(=O)C(=O)N2Cc1ccc(OCCC(C)C)cc1 |  | inconclusive: 0.316 µM [inhibitor, full curve]
N#CC1=C(N)SC(N)=C(C#N)C1c1cccc(Oc2ccccc2)c1 | inactive: -16.7% | 
CN1CCN(c2nc(-c3ccccc3)cc(C(F)(F)F)n2)CC1 |  | inconclusive: 79.4 µM [inhibitor, single point]
Cc1nc2sc(C(N)=O)c(N)c2c(C)c1CC(=O)c1ccccc1 |  | inconclusive: 89.1 µM [inhibitor, single point]
O=C(O)CCN1C(=O)/C(=C\c2cccc(Oc3ccccc3)c2)SC1=S |  | active: 50.1 µM
COc1cccc(C(=O)Nc2nc3ccccc3[nH]2)c1 |  | inconclusive: 39.8 µM [inhibitor, partial curve]
Nc1nc(-c2ccc(Cl)cc2)nn1C(=O)c1ccco1 |  | inconclusive: 39.8 µM [inhibitor, single point]
O=C(c1ccc([N+](=O)[O-])cc1)n1nc(-c2ccccc2)nc1NCc1ccc(F)cc1 |  | inconclusive: 28.2 µM [inhibitor, full curve]
COC(=O)c1cccc(C(=O)N2CCCC(Nc3ccc(C)c(C)c3)C2)c1 (stereo not given) |  | inconclusive: 50.1 µM [inhibitor, partial curve]
COCC(C)n1c(-c2ccc3c(c2)NC(=O)CO3)csc1=Nc1ccc(OC(F)F)cc1 (stereo not given) |  | active: 12.6 µM
O=C1c2ccccc2NC2(CCCCC2)N1c1ccc(O)cc1 | inactive: -5.92% | 
COc1ccc(S(=O)(=O)c2c(O)c(C)cc(NS(=O)(=O)c3ccc(Cl)cc3)c2C(C)C)cc1 |  | inconclusive: 79.4 µM [inhibitor, partial curve]
CCC1CCCCN1S(=O)(=O)c1ccc(C(=O)Nc2nnc(C3=COCCO3)o2)cc1 (stereo not given) |  | active: 79.4 µM
OCCOCCN1CCN(C2=Nc3ccccc3Sc3ccccc32)CC1 |  | inactive
O=C(CCc1ccccc1)NCc1ccncc1 | inactive: 1.84% | 
CC(=O)N1CCc2c(sc3c2c(=O)n(-c2ccc(F)cc2)c(=O)n3Cc2cc(C)ccc2C)C1 | inactive: 0.396% | 
